The target of assay [1] is T1, human PD-1 expressed on the surface of CHO cells (human, UniProt Q15116 25-288).
T1 construct: I took it as human PD-1; also called CHO-PD1
The assay can be described thus: flow cytometry, CHO-PD1 cells. How it is done: (§1) CHO-k cells stably expressing PD-1 or LAG3 (human or cynomolgus) on the cell surface were used to assess binding affinity of anti-PD-1/LAG3 bispecific antibody constructs. Cells were seeded at 100,000 cells/well in 100 μL of FACS buffer (1×PBS, 0.5% BSA, 0.1% sodium azide) in 96-well polypropylene plates. The cells were centrifuged at 1.5K rpm and resuspended with test antibodies diluted in FACS buffer and incubated on ice for 1 hour. The cells were washed twice with FACS buffer and incubated on ice for 30 mins with R-Phycoerythrin-AffiniPure F(ab′)2 Fragment Goat Anti-Human IgG (H+L) secondary detection antibody (1:200 dilution, Jackson ImmunoResearch Laboratories, West Grove, Pa.). The cells were washed twice with FACS buffer, fixed in 4% paraformaldehyde in PBS (Santa Cruz Biotechnology; Dallas, Tex.) for 20 mins on ice in the dark, washed twice with FACS buffer, and analyzed using the BD LSR II Flow Cytometer (BD Biosciences; San Jose, Calif.). Data were analyzed using FlowJo (FlowJo, LLC; Ashland, Oreg.) to determine mean fluorescence intensities. Binding constants were calculated using the statistical software, GraphPad Prism (GraphPad Software; La Jolla, Calif.) using the nonlinear regression equation, one site—specific binding with Hill slope. The secondary antibody by itself was used as a control.
Background: In flow cytometry, cells or beads pass a laser one at a time.

Assay [2] has as its target T2, human LAG3 expressed on the cell surface (CHO-LAG3, 293T-LAG3 cells) (human, UniProt P18627 23-525).
T2 construct: Stably transfected CHO or HEK293T cells; also called Human LAG3 (CHO); Human LAG3 (293T)
T2 sequence: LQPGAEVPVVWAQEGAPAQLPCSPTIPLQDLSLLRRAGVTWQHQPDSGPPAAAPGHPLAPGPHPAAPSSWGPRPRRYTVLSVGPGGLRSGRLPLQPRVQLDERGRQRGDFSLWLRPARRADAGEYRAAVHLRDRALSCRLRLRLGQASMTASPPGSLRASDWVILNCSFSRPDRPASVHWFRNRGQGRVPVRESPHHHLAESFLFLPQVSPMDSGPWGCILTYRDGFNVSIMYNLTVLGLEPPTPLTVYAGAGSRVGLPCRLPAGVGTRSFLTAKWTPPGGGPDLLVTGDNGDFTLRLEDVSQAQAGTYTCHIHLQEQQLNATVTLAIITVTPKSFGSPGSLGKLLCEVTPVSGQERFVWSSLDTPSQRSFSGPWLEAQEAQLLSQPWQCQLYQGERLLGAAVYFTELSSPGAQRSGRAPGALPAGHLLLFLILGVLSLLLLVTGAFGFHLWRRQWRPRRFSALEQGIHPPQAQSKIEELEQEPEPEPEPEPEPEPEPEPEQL
Kind of assay: flow cytometry, CHO-LAG3 cells.

In assay [3] the target is T3, rabbit Fc-tagged recombinant human PD1 (rhPD1-rabbit Fc) (human, UniProt Q15116 part only, limits assumed).
T3 construct: also called recombinant human PD-1 protein
The assay can be described thus: flow cytometry competition: inhibition of rhPD1-rabbit Fc binding to human PD-L1 on CHO cells; PE anti-rabbit IgG detection. The protocol: CHO-k cells stably expressing human PD-L1 or PD-L2 were used to measure the ability of anti-PD1/LAG3 bi-specific antibody constructs to block rabbit Fc-tagged recombinant human PD1 (rhPD1-rabbit Fc) protein binding. Cells were seeded at 100,000 cells/well in 100 μL of FACS buffer in 96-well polypropylene plates. The cells were centrifuged and resuspended with test antibodies (2× concentration) diluted in FACS buffer, immediately followed by equal volume of rhPD1-rabbit Fc (added at 2× concentration; 0.2 ng/mL and 0.1 ng/mL final for PD-L1 and PD-L2, respectively). Cells were incubated on ice for 1 hour and washed twice. rhPD1-rabbit Fc binding on CHO-human PD-L1 or PD-L2 cells was detected with R-Phycoerythrin AffiniPure F(ab′)₂ Fragment Goat Anti-Rabbit IgG (H+L) (1:200 dilution, Jackson ImmunoResearch) for 30 minutes. The cells were washed twice with FACS buffer, fixed in 4% paraformaldehyde in PBS for 20 mins on ice in the dark, washed twice with FACS buffer, and analyzed using the BD LSR II Flow Cytometer. Data were analyzed using FlowJo (FlowJo, LLC; Ashland, Oreg.) to determine mean fluorescence intensities. Prism 6 software was used to create one site, specific binding with Hill slope curves (Log transform) to determine IC₅₀ values.

Assay [4] addresses T1, human PD-1 expressed on the surface of …. The assay can be described thus: flow cytometry cell binding on CHO cells expressing human PD-1; PE anti-human IgG detection; one site-specific binding with Hill slope fit. The protocol:
as §1

B1: PD-1/LAG3 Bi-specific Construct A: aPD1 1353-G10 scFv_zwB × aLAG3 Fab_zwA (bispecific antibody, human IgG1, kappa)
scFv: MEVQLVQSGAEVKKPGASVKVSCKASGYRFPHYGISWVRQAPGQGLEWMGWISAYNGNTNYAQKLQGRVTMTTDTSTNTAYMELRSLRSDDTAVYYCARDVDYGTGSGYWGQGTLVTVSSGGGGSGGGGSGGGGSSYELTQPPSVSVSPGQTARITCSGDALPKQYAYWYQQKPGQAPVMVIYKDTERPSGIPERFSGSSSGTKVTLTISGVQAEDEADYYCQSADNSITYRVFGGGTKVTVLAAGSDQ[no letters for human IgG1 Fc with changes]
heavy: MQVQLVESGGGVVQPGRSLRLSCAASGFTFSSYGMHWVRQAPGKGLEWVAVIWYDGSYKYYADSVKGRFTISRDNSKNTLYLQMNSLRAEDTAVYYCAREEAPENWDYALDVWGQGTTVTVSSASTKGPSVFPLAPSSKSTSGGTAALGCLVKDYFPEPVTVSWNSGALTSGVHTFPAVLQSSGLYSLSSVVTVPSSSLGTQTYICNVNHKPSNTKVDKKVEPKSCDKTHTCPPCPAPELLGGPSVFLFPPKPKDTLMISRTPEVTCVVVDVSHEDPEVKFNWYVDGVEVHNAKTKPREEQYNSTYRVVSVLTVLHQDWLNGKEYKCKVSNKALPAPIEKTISKAKGQPREPQVYVYPPSREEMTKNQVSLTCLVKGFYPSDIAVEWESNGQPENNYKTTPPVLDSDGSFALVSKLTVDKSRWQQGNVFSCSVMHEALHNHYTQKSLSLSPGK
light: [no letters for about 100 residues][no letters for about 120 residues]
notes: also called 1449-G09.2-Fab-zwA
For the molecule B1, the dissociation constant (Kd) (in general, the equilibrium constant for the complex coming apart) came out at 3.7 nM in assay [1], 3 nM in assay [2] and 0.5 nM in assay [4]. For the same molecule, in assay [3], the IC50 (in general, the concentration that inhibits the measured activity by half) stood at 2.3 nM. This molecule yielded a Bmax in assay [4] of 3030 MFI.

Source of the values: patent publication US20200079850A1 (SUTRO BIOPHARMA, published 2020).
